Data reported in publication PMC7480101.
No constants are given. Whether binding was seen depends on the method and setting.

Target: hAG-p62 (human), Q13501
Assay: Fluoppi (phase-separated fluorescent foci in cells); hAG-tagged autophagy adaptor and HA-Ash-6Ub transiently co-expressed in HeLa (WT, Penta KO, FIP200 KO, ATG5 KO, ATG9A KO) or HCT116 (WT, TBK1-/-) cells; foci formation and incorporation of a third protein into the foci read by immunostaining and confocal microscopy; some samples with 2 µM BX-795 for 15 h
Settings: remark: other sources report otherwise

binding: no binding
B1: ATG13, O75143 1-517 (protein)
chain: METDLNSQDRKDLDKFIKFFALKTVQVIVQARLGEKICTRSSSSPTGSDWFNLAIKDIPEVTHEAKKALAGQLPAVGRSMCVEISLKTSEGDSMELEIWCLEMNEKCDKEIKVSYTVYNRLSLLLKSLLAITRVTPAYRLSRKQGHEYVILYRIYFGEVQLSGLGEGFQTVRVGTVGTPVGTITLSCAYRINLAFMSTRQFERTPPIMGIIIDHFVDRPYPSSSPMHPCNYRTAGEDTGVIYPSVEDSQEVCTTSFSTSPPSQLSSSRLSYQPAALGVGSADLAYPVVFAAGLNATHPHQLMVPGKEGGVPLAPNQPVHGTQADQERLATCTPSDRTHCAATPSSSEDTETVSNSSEGRASPHDVLETIFVRKVGAFVNKPINQVTLTSLDIPFAMFAPKNLELEDTDPMVNPPDSPETESPLQGSLHSDGSSGGSSGNTHDDFVMIDFKPAFSKDDILPMDLGTFYREFQNPPQLSSLSIDIGAQSMAEDLDSLPEKLAVHEKNVREFDAFVETLQ
